The data set deals with the molecule itself. Nature of the data set: SEC-MALS. Background: SEC sorts molecules by how far they enter the pores of the column.

B1: RanBP9-Twa1 complex (protein)
chain 1: MSGQPPPPPPQQQQQQQQLSPPPPAALAPVSGVVLPAPPAVSAGSSPAGSPGGGAGGEGLGAAAAALLLHPPPPPPPATAAPPPPPPPPPPPASAAAPASGPPAPPGLAAGPGPAGGAPTPALVAGSSAAAPFPHGDSALNEQEKELQRRLKRLYPAVDEQETPLPRSWSPKDKFSYIGLSQNNLRVHYKGHGKTPKDAASVRATHPIPAACGIYYFEVKIVSKGRDGYMGIGLSAQGVNMNRLPGWDKHSYGYHGDDGHSFCSSGTGQPYGPTFTTGDVIGCCVNLINNTCFYTKNGHSLGIAFTDLPPNLYPTVGLQTPGEVVDANFGQHPFVFDIEDYMREWRTKIQAQIDRFPIGDREGEWQTMIQKMVSSYLVHHGYCATAEAFARSTDQTVLEELASIKNRQRIQKLVLAGRMGEAIETTQQLYPSLLERNPNLLFTLKVRQFIEMVNGTDSEVRCLGGRSPKSQDSYPVSPRPFSSPSMSPSHGMNIHNLASGKGSTAHFSGFESCSNGVISNKAHQSYCHSNKHQSSNLNVPELNSINMSRSQQVNNFTSNDVDMETDHYSNGVGETSSNGFLNGSSKHDHEMEDCDTEMEVDSSQLRRQLCGGSQAAIERMIHFGRELQAMSEQLRRDCGKNTANKKMLKDAFSLLAYSDPWNSPVGNQLDPIQREPVCSALNSAILETHNLPKQPPLALAMGQATQCLGLMARSGIGSCAFATVEDYLH
chain 2: [about 250 residues left out]
The term Kd denotes the free concentration of one partner at which half of the binding sites on the other are occupied at equilibrium, for simple one-to-one binding. As to B1, binding was put at a Kd of 1.8 µM.
